Assay results as given in the supplement of paper PMC4604168 (melanoma cell lines).
This is one part of the list. Single values are uncertain, as repeats are few or missing.

How the values were obtained:
Assay in all cases: cell count relative to DMSO control; melanoma cells; higher = more viable cells
Settings in all cases: library dose: standard library concentration; 72 h
G361 = tested on: G361
IPC-298 = tested on: IPC-298
IST-MEL1 = tested on: IST-MEL1
LOXIMVI = tested on: LOXIMVI
MEL-HO = tested on: MEL-HO
MeWo = tested on: MeWo
RPMI7951 = tested on: RPMI7951
RVH-421 = tested on: RVH-421
SkMel28 = tested on: SkMel28
SkMel30 = tested on: SkMel30
SkMel5 = tested on: SkMel5
UACC257 = tested on: UACC257
UACC62 = tested on: UACC62
WM115 = tested on: WM115
WM1716 = tested on: WM1716
WM1745 = tested on: WM1745
WM3526 = tested on: WM3526
LB2518-MEL = tested on: LB2518-MEL
MZ2-MEL = tested on: MZ2-MEL
SkMel2 = tested on: SkMel2
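Note: cells treated in 1,536-well plates, then fixed and DAPI-stained, with nuclei counted from automated high-throughput microscope images.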

| Structure (SMILES) | cell count (G361) | cell count (IPC-298) | cell count (IST-MEL1) | cell count (LOXIMVI) | cell count (MEL-HO) | cell count (MeWo) | cell count (RPMI7951) | cell count (RVH-421) | cell count (SkMel28) | cell count (SkMel30) | cell count (SkMel5) | cell count (UACC257) | cell count (UACC62) | cell count (WM115) | cell count (WM1716) | cell count (WM1745) | cell count (WM3526) | cell count (LB2518-MEL) | cell count (MZ2-MEL) | cell count (SkMel2) |
| --- | --- | --- | --- | --- | --- | --- | --- | --- | --- | --- | --- | --- | --- | --- | --- | --- | --- | --- | --- | --- |
| O=C(CCCCCCC(=O)Nc1ccccc1)NO [vorinostat] + O=C(Oc1ccc([N+](=O)[O-])cc1)N1CCC(C(O)(c2ccc3c(c2)OCO3)c2ccc3c(c2)OCO3)CC1 [JZL184] (first compound 0.4 µM, partner dose 5 µM) | 71.1% | 81.1% | 111% | 92.4% | 82.8% | 72.4% | 64.7% | 86.3% | 52.3% | 83.8% | 76.9% | 76.7% | 55.1% | 74.1% | 70.9% | 80.7% | 65.1% | – | – | – |
| Clc1ccc(Nc2nnc(Cc3ccncc3)c3ccccc23)cc1 [vatalanib] + C/C(O)=C(\C#N)C(=O)Nc1cc(Br)ccc1Br [LFM-A13] (first compound 10 µM, partner dose 10 µM) | 80% | 70.8% | 76.2% | 84.3% | 64.6% | 57.5% | 85.7% | 77.1% | 78.7% | 91.4% | 55.9% | 78.8% | 86.8% | 65.8% | 84.1% | – | 73.5% | 67% | 64.7% | 83.3% |
| O=C(O)c1ccc2c(c1)nc(Nc1cccc(Cl)c1)c1ccncc12 + C[As](C)SC[C@H](NC(=O)CC[C@H](N)C(=O)O)C(=O)NCC(=O)O [Darinaparsin] (first compound 2 µM, partner dose 2 µM) | 51.9% | 79.8% | 74.7% | 32% | 61.1% | 71.9% | 68.4% | 69.1% | 68.4% | 70.6% | 57.8% | 78.4% | 85.5% | 52.8% | 69.8% | 64.3% | 49.4% | 88.1% | 61.1% | 74.1% |
| CO[C@H]1C[C@@H]2CC[C@@H](C)[C@@](O)(O2)C(=O)C(=O)N2CCCC[C@H]2C(=O)O[C@H]([C@H](C)C[C@@H]2CC[C@@H](OCCO)[C@H](OC)C2)CC(=O)[C@H](C)/C=C(\C)[C@@H](O)[C@@H](OC)C(=O)[C@H](C)C[C@H](C)/C=C/C=C/C=C/1C [everolimus] + O=C(Oc1ccc([N+](=O)[O-])cc1)N1CCC(C(O)(c2ccc3c(c2)OCO3)c2ccc3c(c2)OCO3)CC1 [JZL184] (first compound 0.1 µM, partner dose 5 µM) | 78.9% | 74.9% | 88.8% | 88.9% | 80.2% | 75.7% | 79.5% | 94% | 37.7% | 63.9% | 53% | 88.5% | 76.7% | 66% | 71.9% | – | 65.8% | – | – | 67.9% |
| CN1CCN(c2ccc3nc(-c4c(N)c5c(F)cccc5[nH]c4=O)[nH]c3c2)CC1 [Dovitinib] + O=C(Oc1ccc([N+](=O)[O-])cc1)N1CCC(C(O)(c2ccc3c(c2)OCO3)c2ccc3c(c2)OCO3)CC1 [JZL184] (first compound 0.5 µM, partner dose 5 µM) | 54.4% | 78.8% | 79.2% | 75% | 75% | 49% | 78.5% | 89.8% | 54.3% | 54.4% | 67% | 72.9% | 72.1% | 60.2% | 77.5% | – | 55.8% | 48.1% | 60.7% | 57.2% |
| CO[C@H]1C[C@@H]2CC[C@@H](C)[C@@](O)(O2)C(=O)C(=O)N2CCCC[C@H]2C(=O)O[C@H]([C@H](C)C[C@@H]2CC[C@@H](OCCO)[C@H](OC)C2)CC(=O)[C@H](C)/C=C(\C)[C@@H](O)[C@@H](OC)C(=O)[C@H](C)C[C@H](C)/C=C/C=C/C=C/1C [everolimus] + C/C(O)=C(\C#N)C(=O)Nc1cc(Br)ccc1Br [LFM-A13] (first compound 0.1 µM, partner dose 10 µM) | 59% | 78.5% | 75.9% | 89.7% | 60.1% | 81.6% | 76.5% | 82.7% | 42.6% | 61.3% | 52.5% | 105% | 86.9% | 77.3% | 87.3% | – | 81.3% | 68.3% | 78.1% | 68.4% |
| Nc1ccn([C@@H]2O[C@H](CO)[C@@H](O)C2(F)F)c(=O)n1 [gemcitabine] + O=C(Oc1ccc([N+](=O)[O-])cc1)N1CCC(C(O)(c2ccc3c(c2)OCO3)c2ccc3c(c2)OCO3)CC1 [JZL184] (first compound 0.002 µM, partner dose 5 µM) | 47.8% | 47.1% | 40.3% | 66.3% | 50% | 39.8% | 54.7% | 69.7% | 124% | 105% | 88.8% | 99.9% | 60.4% | 83.7% | 70.3% | – | 84.4% | 64.7% | 85.7% | 113% |
| O=C(O)c1ccc2c(c1)nc(Nc1cccc(Cl)c1)c1ccncc12 + O=C(Oc1ccc([N+](=O)[O-])cc1)N1CCC(C(O)(c2ccc3c(c2)OCO3)c2ccc3c(c2)OCO3)CC1 [JZL184] (first compound 2 µM, partner dose 5 µM) | 82.3% | 81.4% | 93.7% | 83.1% | 66.2% | 86.5% | 62.5% | 90.2% | 125% | 86.5% | 89.1% | 76.8% | 81.1% | 82% | 78.3% | – | 85.5% | 123% | 79.3% | 88.2% |
| Clc1ccc(Nc2nnc(Cc3ccncc3)c3ccccc23)cc1 [vatalanib] + O=C(Oc1ccc([N+](=O)[O-])cc1)N1CCC(C(O)(c2ccc3c(c2)OCO3)c2ccc3c(c2)OCO3)CC1 [JZL184] (first compound 10 µM, partner dose 5 µM) | 72.2% | 91.4% | 101% | 113% | 75.4% | 68.5% | 94.7% | 69.4% | 91.1% | 112% | 96.8% | 56% | 120% | 93.1% | 89.6% | – | 81.1% | 115% | 66.4% | 83.1% |
| Cc1cc(Nc2cc(N3CCN(C)CC3)nc(Sc3ccc(NC(=O)C4CC4)cc3)n2)n[nH]1 [Tozasertib] + Cc1cc(SCc2sc(-c3ccc(C(F)(F)F)c(F)c3)nc2C)ccc1OCC(=O)O [GW0742] (first compound 0.03 µM, partner dose 10 µM) | 78.9% | 99.8% | 85.2% | 68.1% | 88.8% | 65.3% | 88.3% | 109% | 68.5% | 93.4% | 60.3% | 93.2% | 82.5% | 63.2% | 66.7% | – | 91.8% | – | – | – |
| CC(C)C[C@H](NC(=O)[C@H](Cc1ccccc1)NC(=O)c1cnccn1)B(O)O [Bortezomib] + Cc1cc(SCc2sc(-c3ccc(C(F)(F)F)c(F)c3)nc2C)ccc1OCC(=O)O [GW0742] (first compound 0.005 µM, partner dose 10 µM) | 0.114% | 17.5% | 9.26% | 3.55% | 22.1% | 12.4% | 13.5% | 5.75% | 25.3% | 25.7% | 29.5% | 73.8% | 62.3% | 26.1% | 15.5% | – | 25.9% | – | – | 34.6% |
| CC(C)C[C@H](NC(=O)[C@H](Cc1ccccc1)NC(=O)c1cnccn1)B(O)O [Bortezomib] + C/C(O)=C(\C#N)C(=O)Nc1cc(Br)ccc1Br [LFM-A13] (first compound 0.005 µM, partner dose 10 µM) | 0.684% | 8.36% | 19.3% | 14.5% | 49.4% | 11.2% | 8.79% | 17.5% | 32.4% | 40.2% | 43.9% | 89% | 69.7% | 30.2% | 26.9% | – | 32.1% | 3.61% | 4.32% | 53.7% |
| COc1cc2ncnc(Nc3ccc(Oc4ccccc4)cc3)c2cc1OC + C/C(O)=C(\C#N)C(=O)Nc1cc(Br)ccc1Br [LFM-A13] (first compound 10 µM, partner dose 10 µM) | 71.3% | 78.2% | 90.5% | 98% | 89.3% | 90.3% | 89.6% | 113% | 62.8% | 100% | 112% | 94% | 98.1% | 86.8% | 116% | 75.7% | 72.4% | 75.3% | 75.1% | 87.6% |
| Cc1cc(Nc2cc(N3CCN(C)CC3)nc(Sc3ccc(NC(=O)C4CC4)cc3)n2)n[nH]1 [Tozasertib] + C/C(O)=C(\C#N)C(=O)Nc1cc(Br)ccc1Br [LFM-A13] (first compound 0.03 µM, partner dose 10 µM) | 104% | 84.2% | 92% | 64.7% | 82.4% | 80.9% | 93.8% | 113% | 71.7% | 108% | 60.7% | 88.5% | 69% | 80.5% | 78.5% | – | 79.6% | 88.7% | 65.2% | 101% |
| CN1CCN(c2ccc3nc(-c4c(N)c5c(F)cccc5[nH]c4=O)[nH]c3c2)CC1 [Dovitinib] + C/C(O)=C(\C#N)C(=O)Nc1cc(Br)ccc1Br [LFM-A13] (first compound 0.5 µM, partner dose 10 µM) | 49.5% | 65.3% | 57.8% | 100% | 69.5% | 58% | 79.4% | 96.3% | 36.4% | 85.1% | 73% | 74% | 59.7% | 67.3% | 73% | – | 71.7% | 44.5% | 53.9% | 52.9% |
| Cc1cc(Nc2cc(N3CCN(C)CC3)nc(Sc3ccc(NC(=O)C4CC4)cc3)n2)n[nH]1 [Tozasertib] + C[C@]12O[C@H](C[C@]1(O)CO)n1c3ccccc3c3c4c(c5c6ccccc6n2c5c31)CNC4=O [Lestaurtinib] (first compound 0.03 µM, partner dose 0.02 µM) | 67.4% | 70.4% | 82.4% | 75.3% | 85.1% | 64.1% | 107% | 55% | 40.3% | 71.6% | 48.3% | 103% | 62.4% | 57.7% | 83.4% | 63.2% | 66.2% | 63% | 76.7% | 91.9% |
| Cc1cc(Nc2cc(N3CCN(C)CC3)nc(Sc3ccc(NC(=O)C4CC4)cc3)n2)n[nH]1 [Tozasertib] + O=C(Oc1ccc([N+](=O)[O-])cc1)N1CCC(C(O)(c2ccc3c(c2)OCO3)c2ccc3c(c2)OCO3)CC1 [JZL184] (first compound 0.03 µM, partner dose 5 µM) | 88.5% | 101% | 97.8% | 79% | 92.4% | 67.7% | 59.8% | 82.2% | 73.3% | 120% | 68.4% | 81.2% | 71.9% | 52.1% | 71.2% | – | 95.2% | 82.7% | 85.8% | 99.9% |
